# ChEMBL document CHEMBL5606458, “ASAP - ZIKV NS2B-NS3 protease fluorescence single point” (2024)
# In all, about 2,700 compounds went through this assay and about 160 (5.9%) showed an effect of 50% or more. Some of the results follow.
# Target: Nonstructural protein 3 (Zika virus) (UniProt A0A024AXB9)
# [1] = PRVABC59, Concentration 10.0 uM, Number of replicates 1.0
# [2] = PRVABC59, Concentration 15.0 uM, Number of replicates 1.0
# [3] = PRVABC59, Concentration 50.0 uM, Number of replicates 1.0
# Chain of UniProt A0A024AXB9 (A0A024AXB9 as listed by the source): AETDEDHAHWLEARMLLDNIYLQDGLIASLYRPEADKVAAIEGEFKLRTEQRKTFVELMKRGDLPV
structure (smiles),measurement,setting,value
C[C@@H](Cc1ccc(C(F)(F)F)cc1)NC(=O)C1CCN(c2ccc(C=O)cc2)CC1,inhibition,[1],14.8%
O=C(c1cc(Cl)ccc1NS(=O)(=O)c1ccc(Oc2ccccc2Cl)cc1)N(CCc1ccccc1)C1CCCC1,inhibition,[2],16.7%
Cc1ccc2c(c1)C(=O)NCCN2S(=O)(=O)c1ccc(Oc2ccccc2Cl)cc1,inhibition,"PRVABC59, Concentration 49.5 uM, Number of replicates 2.0, Standard deviation 4.7217937817636475 %",3.32%
same,inhibition,"PRVABC59, Concentration 99.01 uM, Number of replicates 2.0, Standard deviation 1.4736147195350457 %",1.38%
same,inhibition,"PRVABC59, Concentration 198.0 uM, Number of replicates 2.0, Standard deviation 0.7368073492308107 %",0.577%
Cc1cc(CO)c2cccc(CC(=O)N3CCC(CN)CC3)c2n1,inhibition,"PRVABC59, Concentration 49.95 uM, Number of replicates 2.0, Standard deviation 0.5547725606279245 %",25.3%
same,inhibition,"PRVABC59, Concentration 99.9 uM, Number of replicates 2.0, Standard deviation 0.00508999060096365 %",39.1%
O=C(Nc1ccc(C(F)(F)F)cc1[N+](=O)[O-])c1cc(Cl)ccc1NS(=O)(=O)c1ccc(Oc2ccccc2Cl)cc1,inhibition,[2],28.1%
COc1cc(CS(=O)(=O)CCc2ccc(F)cc2)nc(N2CCNCC2)n1,inhibition,"PRVABC59, Concentration 49.5 uM, Number of replicates 2.0, Standard deviation 5.345388786115782 %",-2.81%
same,inhibition,"PRVABC59, Concentration 99.01 uM, Number of replicates 2.0, Standard deviation 2.7752057703205737 %",4.63%
same,inhibition,"PRVABC59, Concentration 198.0 uM, Number of replicates 2.0, Standard deviation 2.7033423590364065 %",7.51%
O=C(NCCn1cc([C@H]2CCOC2)cn1)c1cnn([C@H]2CCCNC2)c1,inhibition,"PRVABC59, Concentration 49.5 uM, Number of replicates 2.0, Standard deviation 2.425054936954433 %",-1.94%
same,inhibition,"PRVABC59, Concentration 99.01 uM, Number of replicates 2.0, Standard deviation 3.207528396546797 %",-2.16%
same,inhibition,"PRVABC59, Concentration 198.0 uM, Number of replicates 2.0, Standard deviation 3.920539297933569 %",-2.07%
O=Cc1ccc(N2CCC(C(=O)N[C@H]3CCOc4ccc(F)cc43)CC2)cc1,inhibition,[3],6.75%
CC(C)(C)c1cc(NC(=O)C2CCN(c3ccc(C=O)cc3)CC2)n(-c2ccccc2)n1,inhibition,[3],14.4%
O=Cc1ccc(N2CCC(C(=O)NCCN3C(=O)CSC3=O)CC2)cc1,inhibition,[3],24.5%
Cc1cc(CO)c2cccc(Cc3cccc(C(=O)NCc4ccc(C(N)=O)cc4)c3)c2n1,inhibition,"PRVABC59, Concentration 49.95 uM, Number of replicates 2.0, Standard deviation 1.793263436091943 %",-9.88%
CN(Cc1csc(-c2ccccc2)n1)C(=O)c1cc(Cl)ccc1NS(=O)(=O)c1ccc(Oc2ccccc2Cl)cc1,inhibition,[2],22.3%
O=Cc1ccc(N2CCC(C(=O)NC[C@@H](c3ccc(Cl)cc3)N3CCCC3)CC2)cc1,inhibition,[3],18.7%
CC(C)CN1CCN(C(=O)C2CCN(c3ccc(C=O)cc3)CC2)[C@@H](C)C1=O,inhibition,[3],21.2%
CN1CCC(N(C(=O)C2CCN(c3ccc(C=O)cc3)CC2)C2CCN(C)CC2)CC1,inhibition,[3],25%
CC(C)c1cccc(C(C)C)c1NC(=O)C1CCN(c2ccc(C=O)cc2)CC1,inhibition,[3],22.1%
CC(C)COc1ccc(CNC(=O)C2CCN(c3ccc(C=O)cc3)CC2)cc1,inhibition,[1],-6.54%
O=C(NCCc1ccc(Cl)c(Cl)c1)c1cc(Cl)ccc1NS(=O)(=O)c1ccc(Oc2ccccc2Cl)cc1,inhibition,[2],32.4%
CC(C)Cn1cccc(C(=O)NC2CCN(C)CC2)c1=O,inhibition,"PRVABC59, Concentration 49.5 uM, Number of replicates 2.0, Standard deviation 1.6566870792545731 %",-3.87%
same,inhibition,"PRVABC59, Concentration 99.01 uM, Number of replicates 2.0, Standard deviation 3.145993850206922 %",-6.69%
O=C(c1cc(Cl)ccc1NS(=O)(=O)c1ccc(Oc2ccccc2Cl)cc1)N1CCC(c2ccncc2)CC1,inhibition,[2],10.5%
O=Cc1ccc(N2CCC(C(=O)N3CCN(Cc4c(F)cccc4Cl)CC3)CC2)cc1,inhibition,[3],21.1%
C[C@@H](NCc1ccc(C(N)=O)cc1)c1ccc(OCc2ccccc2)cc1,inhibition,"PRVABC59, Concentration 49.5 uM, Number of replicates 2.0, Standard deviation 1.6931432392061019 %",-1.14%
same,inhibition,"PRVABC59, Concentration 99.01 uM, Number of replicates 2.0, Standard deviation 0.829849214716914 %",-0.792%
same,inhibition,"PRVABC59, Concentration 198.0 uM, Number of replicates 2.0, Standard deviation 0.6542639054605588 %",-1.9%
O=C(NC1CCN(Cc2ccccc2)CC1)c1cc(Cl)ccc1NS(=O)(=O)c1ccc(Oc2ccccc2Cl)cc1,inhibition,[2],8.32%
CCS(=O)(=O)c1ccc(CNC(=O)c2cc(Cl)ccc2NS(=O)(=O)c2ccc(Oc3ccccc3Cl)cc2)cc1,inhibition,[2],33.1%
C[C@@H]1CCN(Cc2ccccc2)C[C@@H]1N(C)C(=O)c1cc(Cl)ccc1NS(=O)(=O)c1ccc(Oc2ccccc2Cl)cc1,inhibition,[2],20.9%
CCOCCN(CCOCC)C(=O)C1CCN(c2ccc(C=O)cc2)CC1,inhibition,[3],26.9%
O=C(c1cc(Cl)ccc1NS(=O)(=O)c1ccc(Oc2ccccc2Cl)cc1)N1CCC(Oc2cnccn2)CC1,inhibition,[2],10.5%
C[C@@H](NC(=O)OCc1ccccc1)C(=O)Nc1cccc(CN)c1,inhibition,"PRVABC59, Concentration 49.5 uM, Number of replicates 2.0, Standard deviation 0.22300909071478295 %",-5.65%
same,inhibition,"PRVABC59, Concentration 99.01 uM, Number of replicates 2.0, Standard deviation 0.06482809074333463 %",-3.85%
same,inhibition,"PRVABC59, Concentration 198.0 uM, Number of replicates 2.0, Standard deviation 0.9413049329503056 %",-1.69%
COCCN(C(=O)C1CCN(c2ccc(C=O)cc2)CC1)C1CCN(C)CC1,inhibition,[3],30.4%
O=C(NC[C@H]1CCCN(C2CCCC2)C1)c1cc(Cl)ccc1NS(=O)(=O)c1ccc(Oc2ccccc2Cl)cc1,inhibition,[2],19.4%
CCn1ccnc(N2CCC[C@H](c3c[nH]c4ccccc34)C2)c1=O,inhibition,"PRVABC59, Concentration 50.0 uM, Number of replicates 2.0, Standard deviation 0.5152475832691962 %",10.2%
same,inhibition,"PRVABC59, Concentration 100.0 uM, Number of replicates 2.0, Standard deviation 1.199680708656035 %",10.1%
CS(=O)(=O)c1ccc(CN2CCC(c3c[nH]c4cccnc34)CC2)cc1,inhibition,"PRVABC59, Concentration 49.5 uM, Number of replicates 2.0, Standard deviation 0.19659195183033668 %",1.63%
same,inhibition,"PRVABC59, Concentration 99.01 uM, Number of replicates 2.0, Standard deviation 0.06397048666983496 %",5.71%
same,inhibition,"PRVABC59, Concentration 198.0 uM, Number of replicates 2.0, Standard deviation 0.5273656451530484 %",11.4%
COc1ccc2nc(C)c(C)nc2c1N,inhibition,"PRVABC59, Concentration 99.9 uM, Number of replicates 2.0, Standard deviation 7.57309376016941 %",-8.22%
CN1CCN(c2ccccc2NC(=O)c2cc(Cl)ccc2NS(=O)(=O)c2ccc(Oc3ccccc3Cl)cc2)CC1,inhibition,[2],13.9%
O=Cc1ccc(N2CCC(C(=O)N3CCC4(CC3)NC(=O)NC4=O)CC2)cc1,inhibition,[3],27.1%
Cc1cc(CO)c2cccc(Cc3cccc(NC(=O)COc4cccc(CN)c4)c3)c2n1,inhibition,"PRVABC59, Concentration 49.95 uM, Number of replicates 2.0, Standard deviation 2.9163768079952073 %",7.92%
same,inhibition,"PRVABC59, Concentration 99.9 uM, Number of replicates 2.0, Standard deviation 0.6820142334571017 %",25.1%
CCCCCC(=O)N[C@@H](Cc1ccc(CN)cc1)C(=O)N1CCCCC1,inhibition,"PRVABC59, Concentration 49.5 uM, Number of replicates 2.0, Standard deviation 4.431780738958108 %",0.292%
same,inhibition,"PRVABC59, Concentration 99.01 uM, Number of replicates 2.0, Standard deviation 4.3633069458185805 %",0.545%
same,inhibition,"PRVABC59, Concentration 198.0 uM, Number of replicates 2.0, Standard deviation 3.524502052628708 %",-0.164%
CCN(CC)S(=O)(=O)c1ccc(NC(=O)c2cc(Cl)ccc2NS(=O)(=O)c2ccc(Oc3ccccc3Cl)cc2)cc1,inhibition,[2],27.6%
O=Cc1ccc(N2CCC(C(=O)Nc3ccc(Br)c(C(F)(F)F)c3)CC2)cc1,inhibition,[3],22.5%
Cc1cc(CO)c2cccc(Cc3cccc(C(=O)NCC(N)=O)c3)c2n1,inhibition,"PRVABC59, Concentration 49.95 uM, Number of replicates 2.0, Standard deviation 1.0591786257609663 %",-5.74%
same,inhibition,"PRVABC59, Concentration 99.9 uM, Number of replicates 2.0, Standard deviation 0.9490662751035868 %",-1.72%
O=Cc1ccc(N2CCC(C(=O)NCCc3cc(F)cc(F)c3)CC2)cc1,inhibition,[3],19.3%
